The RNAGym collection of RNA variant scans (doi:10.7554/elife.90254)
The source gives no read counts; variants with many changes may rest on few reads.

B1: LINE1-mini (parent)
chain: GGCAGAGCUCAACACAGCGUGGCAAAGUGGCUGUGGCUAGACUGCC

Variants of: B1
Experiment: self-cleavage, relative activity (ratio to wild type); higher = more cleavage; in vitro, sequencing; the parent is a self-cleaving ribozyme

Variant | self-cleavage
C10G G30A U32G G35U | 0.02
C10G U32A U34C | 0.02
C10G G27U G33U G44A | 0.02
C10U A25G C37G U43C | 0.01
C10U C15A U32A G40C C42A C45U | 0
C10U A14U G29C | 0.19
C10U G22C G40A | 0.07
C10U G17C G19C G22A G27A | 0.15
C10U G19U C23A C37U U43G | 0
C10U A24C U38G C45U | 0.01
C10G G29A G35C | 0.02
C10G U20A G29A G30C U38C C46G | 0
C10U G19U G27U G30C | 0.9
C10U A26G G33C | 0.01
C10U C15G A26C G27U | 0.07
C10U G19U G21U G29C C46G | 0.49
C10G U28C G36U C42U | 0.01
C10U C13G A26C G29A | 0.06
C10G C31U U32A G33C U34G C45A | 0.01
C10U C15G G19C G36U | 0.03
C10G G27U U38C | 0.01

Variant | self-cleavage
C10G G17C A26G | 0.02
C10U C18A G30C | 0.38
C10G U20A G27U U34G | 0.02
C10U A12U A24U G30U | 0.1
C10G G22A G27A | 0.09
C10U C31A A39U G40U | 0.04
C10U C13U C23U A41U | 0.04
C10G G30A G33U | 0.02
C10G G33A C37G G40A | 0.02
C10U A16C U20G | 0.05
C10U C15G U20A | 0.02
C10U C15A A24G U32C | 0.03
C10G G22A U32G U38C | 0
C10G G19A G27U | 0.12
C10U A12G C13G | 0.03
C10G G22C G27U G35C | 0.01
C10U A12C A14G G27A | 0.01
C10U C18U C42A | 0.04
C10U A12C A14C A41U C46G | 0.01
C10U A14U G21U U38A G40C | 0.09
C10G G17C U20C C23G | 0.09

Variant | self-cleavage
C10U G17U G35A | 0.01
C10U A11U U43C | 0.01
C10G G27A C31G | 0.06
C10G G17A A24G A26U U34G G35C C45U | 0
C10U G22A G29U G36A C45A | 0.03
C10U A25U G30U | 0.27
C10G G33U U34G G40C | 0.01
C10U C15U G30U C37A | 0.05
C10U A12C G44A | 0.03
C10U G21A C31A G35U | 0.02
C10G U28A C42U | 0.01
C10U G19C A24U | 0.12
C10U G19C A24C | 0.06
C10U G27A G33U A41G | 0.02
C10G G29U U38G | 0.05
C10G G17A A24U G27C G29U | 0.01
C10U A14C G33A | 0.04
C10U C13A G21U G30U U38C C46A | 0.03
C10U A14C C15A A16U A39G | 0.01
C10U A39C G40A | 0.05
C10U C31A G40C G44A | 0.03

Variant | self-cleavage
C10U A25C U34A C45A | 0.06
C10G G22A G44U | 0.05
C10U C18G A26U C46A | 0.07
C10U G21C A25U | 0.13
C10U C13U A14G G27U | 0.02
C10U C15U C18A G33C U38A | 0.01
C10G U20C C42U | 0.03
C10U C18U G22A C42A | 0.01
C10G U38G C42A C46U | 0
C10U C23U U28C | 0.4
C10U C23G G40C | 0.03
C10G G19C G40A | 0.01
C10U C15G C37U C42A | 0.01
C10U A26C G30A C37A G44U C46A | 0.02
C10U C31A U38A C45U | 0.03
C10G U34A C42U | 0.03
C10G C37G C42U | 0.02
C10G G36U C46A | 0.02
C10G G29A U34C G35C | 0.03
C10G C37A U38A | 0
